In brackets after ≈: the same amount, converted by molar mass.
How the values were obtained:
Experiment in all cases: microbe, parasite or virus in culture
[1] = test system: Herpes simplex virus-1 (B2006) C137/101; conditions: Human alphaherpesvirus 1, read-out: MIC Herpes simplex virus-1 (B2006) C137/101
Method: (§1) Antiviral activity of some eudistomin derivatives was determined in a large number of in-vitro assays as described in reference 9. These tests are all based on the inhibition of virus induced cytopathogenicity. Depending upon the virus studied, different cell cultures were used. […] New compound 67 has the additional advantage of a 10-fold higher potency as compared with known compound 63.

[2] = test system: Herpes simplex virus-1 (B2006) #3; conditions: Human alphaherpesvirus 1, read-out: MIC Herpes simplex virus-1 (B2006) #3
Method: as §1

[3] = test system: Herpes simplex virus-1 (B2006) C158/77; conditions: Human alphaherpesvirus 1, read-out: MIC Herpes simplex virus-1 (B2006) C158/77
Method: as §1

Compound | MIC [1] | MIC [2] | MIC [3]
c1ccc2c3c([nH]c2c1)C1CCSCON1CC3 (racemic) [Compound 50, (±)-Deamino, debromo Eudistomin L] | > 70 µg/mL | > 70 µg/mL | > 70 µg/mL
COc1ccc2[nH]c3c(c2c1)CCN1OCSCC(N)C31 [Compound 67, (1S,13bS)-5-methoxy Eudistomin L] | 0.0085 µg/mL (≈ 0.0278 µM) | 0.055 µg/mL (≈ 0.18 µM) | 0.023 µg/mL (≈ 0.0753 µM)
NC(=O)c1ncn([C@@H]2O[C@H](CO)[C@@H](O)[C@H]2O)n1 [Ribavirin, ribavirin, reference compound] | > 200 µg/mL | > 200 µg/mL | > 200 µg/mL
N[C@@H]1CSCON2CCc3c([nH]c4ccccc34)[C@H]12 [Compound 63, (1S.13bS)-debromo Eudistomin L] | 0.7 µg/mL (≈ 2.54 µM) | 0.85 µg/mL (≈ 3.09 µM) | 0.7 µg/mL (≈ 2.54 µM)
